Measured values published in the supplement of paper PMC11417369.
The list shows a part of the results.

Test system: PfAP2-HC AP2 domain (GST-tagged)
Test: gcPBM binding intensity (ln(normalized median fluorescence intensity)); higher = stronger DNA binding
Outline: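 After 1 h on an Agilent 4 × 180k array of primer-extended double-stranded 36-bp intergenic genomic probes and negative controls, bound GST-tagged P. falciparum DNA-binding domains were detected with Alexa488 anti-GST antibody and scanned at 488 nm. The domains had been expressed in E. coli, and binding took place in 1× PBS with 1% milk, 0.2 mg/ml BSA, 0.5% salmon testes DNA and 0.03% Triton X-100. Binding intensity is the highest Masliner-normalised natural-log median intensity across replicate spots of either probe orientation.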

Sequence	gcPBM binding intensity (ln)
ATCAAGCGCAATGTGGTGCGTAAATTTTGTATTATA	9.6
AAAGGATACAGACACACACACACATATATATATATA [CACACA_site906]	10.8
TCCTTAAAATATATCACACATTTCGTTCATTTATAA [CACACA_site4346]	9.61
TATATATATATATCCACACACATACAGATATTAAGA [CACACA_site4214]	10.1
AGTATACGAATAAAATGTACATACAAATTGTTGTAA [XGTACX_site36]	9.81
ATTCACGTGTCTTAAAAAAAAAAAAAAGAAAAAAAG [CACACA_negctrl_site573]	9.25
ATATATATATATATATGTACATATATATACATATAT [XGTACX_site6987]	10.1
ATAATATATATACAAACACACAATTGTGTCCACATT [CACACA_site1747]	10
TGTACATATATATAATATATATATCATCATATTTTC [CACACA_negctrl_site1750]	9.69
ATATATATGTGAAAATCACACATTGCTTATCTGTAA [CACACA_site6044]	9.73
TGTTTTATTATTTATAGTACATAAAAAAATATTGTA [XGTACX_site8963]	9.36
TTCGTATATTATTAATGTACATTATAAAATCAATAT [XGTACX_site5751]	9.66
AAAAAAACATGAAACACACACAAATATATATATATA [CACACA_site1884]	10
AACAATATTATTGTTTGTACTCACATATATAATATA [XGTACX_site8063]	9.5
AAAAAAAAAAAAAAAAAAAAAAAAAAAATTCTATAT [GTGCAC_negctrl_site468]	9.62
AAGGCATACAATACCTGTACGCAACCTTAAAAAGAA [XGTACX_site6070]	9.73
ATTTTCATGATAAAGGTGCAATTATTTTTATAAGAA	9.58
TATATATATATATATGGTACAGTTTATGCCTTTTAA [XGTACX_site6695]	9.52
TTATTTATAATATATACACACTAACATTATTTATCC [CACACA_site4835]	9.69
TATAATATATACAAATGTACATATATATATATATAT [XGTACX_site4559]	9.57
AGATATTTCATTTAAAGTACATTCTTTATCACATAA [XGTACX_site6731]	9.57
CACACGCACAAAAACACACACAAAGGTGTTCTTATA [CACACA_site6724]	10.1
TTATTTTTTTTTTTTCGTACTTATTTATCTTGGTAT [XGTACX_site78]	9.59

Sequence	gcPBM binding intensity (ln)
TTTTTATTAATAGATATAAATATATAATATGAATGT [TGCATGCA_negctrl_site309]	9.55
ATATATATATATATTTGTACAGATTTATATTATAAT [XGTACX_site7612]	9.52
CCATATAATATGAACAGTACACACAAAATAAATTCG [XGTACX_site7590]	9.85
AAATATTATAGCACCACACACTTATTTTATATATAT [CACACA_site5281]	10.4
GAAAATTTAATATAGAACGAAAGCATACACATATAT [GTGCAC_negctrl_site424]	9.75
AAAAATTTTTTTTCATTTGTTTTTATTCCGTAAAAA [CACACA_negctrl_site1217]	9.17
AATATAAAAAAAAAATGTACATATTATATATATATA [XGTACX_site5113]	9.69
ACCGAAGGAATTTATAGTACACATCATAAATAAATT [XGTACX_site4100]	9.61
TATAATATAAAATAATGTACTTTGAAATATGACATA [XGTACX_site3579]	9.56
AGTTTGATTTTTTCTTATAATATATTATTATATATT [CACACA_negctrl_site376]	9.99
TTTTTGTTTTTGTTTTGTACTCATACATACTATCAT [XGTACX_site4210]	9.83
GGGGTATCTTCCTATGCACACTTGTTATGTACTAAC [CACACA_site4610]	10
CTTTTATTAAAATTCACACACATAAATTTTTATAAA [CACACA_site1993]	9.6
ATATATACGTATGAATGTATATTTGTTTGATTTTTT [CACACA_negctrl_site835]	9.66
ATATGTGATTTCTAATGTACACAAAAAAAAAAAAAA [XGTACX_site7701]	9.58
TTATGTCATAAATGCACACATATATAAATACAGATA [CACACA_site4959]	9.81
TCTTCAAACAAAAAAAATAATAAAAAGTACAAAATG [CACACA_negctrl_site363]	9.6
CAAAGAGAAATAAACACACACAAAATAAAGAAAAAA [CACACA_site2245]	10.3
TTCTTTTTTCAACACACACACACAAGAAAATATATA [CACACA_site9019]	10.3
AAAAAAAAAAAAAAAACACACATATAGATTTATATA [CACACA_site7196]	9.88
TTTTTTCTATTGAGCACACATATCACGATTAGTACT [CACACA_site313]	9.83
ATATATATTATTTCTACACACATATATATAATATGT [CACACA_site3374]	10.1
GCTCAATTTTTGGGTACACACAAATGTATAATAATA [CACACA_site2388]	9.74

Sequence	gcPBM binding intensity (ln)
GCACTCGTAAAAAGCACACATATAAAAACATTTATA [CACACA_site322]	9.74
TGAACAGACAAATACACACACTCAAAAAAAAAAAAG [CACACA_site7287]	10.1
CAATGCTTTATCAATACATGCATATATATAGAAATA [TGCATGCA_site857]	9.48
ATTTTCAAATTCTATGCATGTGTATATTATAGATAA [TGCATGCA_site1003]	9.55
AAAATCTATAATATAACACACATATATTCTATATGG [CACACA_site7821]	9.68
TTCCTGTTAATTACAACACACAATTCTTATTTTATG [CACACA_site6507]	9.96
CATACATACAGACACACACACATATAAATACATACA [CACACA_site6533]	10.3
TTATGATATATTTGTTGTACGCTTTTTTTATGAACT [XGTACX_site573]	9.73
GTAAGTTGTGCATTCACACACATATAAATATAAATA [CACACA_site7536]	9.9
CATTATGTTGTAAATGCACACATACAAATACATATA [CACACA_site8380]	9.78
AATTAAATTACTTATACACACATAAAATGCCTGTAT [CACACA_site6597]	9.84
ATGACCCACTTTTCTGCACACATAAAAAATATATAA [CACACA_site8092]	9.77
AACACATACATATATACACACACAAAATAATAAAAT [CACACA_site8724]	10.6
TTAACAAAACTTTTAACACACAAAAAAAAAAAAAAA [CACACA_site6947]	9.35
CTATAATAATAAAGTGAACACACACCGATAATATAT [CACACA_site9377]	10.1
TTTTTTTTACATTCTGCACACAATTTATTTTTTTTT [CACACA_site36]	10
AAAAATGAGTGACACACACACATATAAATATAAATA [CACACA_site7115]	10.1
AAATCAAACTTTGGTGTGCACAAATATATACATATA [GTGCAC_site9986]	10
TTGATAATTATATAATGTACTCATTATAATATGATG [XGTACX_site7813]	9.48
TATAAAAAAAAAAAAAGTACTAACTTAAAACAATTT [XGTACX_site7969]	9.51
TAATTAATAATAATATGTACATATTAATATATTATT [XGTACX_site6900]	9.61
TTTTATATATATATCACACACACACCCATGTTTTAA [CACACA_site79]	10.4
TTTATTCTCAAACACACACACATATATATATATATA [CACACA_site2895]	9.99

Sequence	gcPBM binding intensity (ln)
TGATAAAGTAAATATACATGCGATTAGTTATATATA [TGCATGCA_site720]	9.65
TATTTATTCTCCAACACACACACATATATTTATATA [CACACA_site7376]	10.4
AGTTTGTCAATCAACACACACCTATTTATTATAGAT [CACACA_site7777]	9.99
GTGTTAAATGTTTACACACAAACTTGCAATAATTAT [CACACA_site3825]	9.82
TTGCATTTATTATACACACACAAAAAAATATATATA [CACACA_site238]	10.5
AAAAATTATAACTAAAAAAATCACACAAAATATTTT [TGCATGCA_negctrl_site28]	9.59
TATGTATTTAAGTTACCTGAACGTTCAGGTAAAATT [CACACA_negctrl_site1393]	9.65
GTAATTTTAAAGAAAAGTACACATTTATTAATTATT [XGTACX_site4468]	9.54
ACATATAAATATTGTGTGCACACACATAATATATAT	11.3
GTGTAGTAAAATCGATGTACGTACAAATCAATTATT [XGTACX_site7662]	10
AAAAAAATGAAGAAATGTACAAATTTCATTAATTTT [XGTACX_site354]	9.55
TATATATGTAAATGCACACATATGTGGATATACTTA [CACACA_site1699]	9.82
GCGAGATGCTAAAATGCATGTTGGGCATTAGTTAAA [TGCATGCA_site586]	9.52
TATAATAATTCTTTGAGTACTTAAACATGTGAAATT [XGTACX_site955]	9.48
TATCATTTCTAAAAAGGTACACATACATCATATATT [XGTACX_site3386]	9.55
ATATTAATATATGTGGCACACATGTGGAGTCCTATT [CACACA_site213]	9.93
GCAGGCTAAAAAATTACACACGAAAAAAATGAATTT [CACACA_site3417]	9.61
CATATATGGTTATATACATGCACCATTATATTATTA [TGCATGCA_site520]	9.54
TATATAATATTTTTCACACACCATTTCCTTAAACAC [CACACA_site4862]	10.1
TAAAAAAAAAGAAGGGGTACATGGATAATATATAAA [XGTACX_site8386]	9.75
